# PubChem BioAssay AID485367 (National Center for Advancing Translational Sciences (NCATS), 2010)
# The whole screen tested about 330,000 compounds, of which about 560 (0.17%) were called active. This list was built around the results that the source calls inconclusive (neither active nor inactive); the mix of calls is not that of the screen. Calls come from the whole dose curve; as a rule, active = well fitted inhibition curve with a large enough effect; inconclusive = small, poorly fitted or top-dose-only effect, or effect the other way; inactive = flat fitted curve, though single readings scatter. No potency is given beside an inconclusive call; the fits are too rough.
# Target: ATP-dependent 6-phosphofructokinase (Trypanosoma brucei brucei) (UniProt O15648)
# Experiment: qHTS Assay to Find Inhibitors of T. brucei phosphofructokinase; note: nearly all actives have a fitted effect of over 60% in size
# Conditions: T. brucei PFK, ADP-Glo luminescence; series mostly up to 57.5 µM
# Outline: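 Luminescent ADP detection (ADP-Glo, two-step: ATP depletion then ADP-to-ATP conversion for luciferase) reported PFK activity after 45 min room-temperature reaction of 1.25 nM enzyme with 0.5 mM F6P and 0.1 mM ATP at pH 8.0.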
# Potency is the fitted concentration of half-maximal effect; tags give direction and shape of the fitted curve.
# UniProt O15648, sequence (O15648 whole entry, looked up): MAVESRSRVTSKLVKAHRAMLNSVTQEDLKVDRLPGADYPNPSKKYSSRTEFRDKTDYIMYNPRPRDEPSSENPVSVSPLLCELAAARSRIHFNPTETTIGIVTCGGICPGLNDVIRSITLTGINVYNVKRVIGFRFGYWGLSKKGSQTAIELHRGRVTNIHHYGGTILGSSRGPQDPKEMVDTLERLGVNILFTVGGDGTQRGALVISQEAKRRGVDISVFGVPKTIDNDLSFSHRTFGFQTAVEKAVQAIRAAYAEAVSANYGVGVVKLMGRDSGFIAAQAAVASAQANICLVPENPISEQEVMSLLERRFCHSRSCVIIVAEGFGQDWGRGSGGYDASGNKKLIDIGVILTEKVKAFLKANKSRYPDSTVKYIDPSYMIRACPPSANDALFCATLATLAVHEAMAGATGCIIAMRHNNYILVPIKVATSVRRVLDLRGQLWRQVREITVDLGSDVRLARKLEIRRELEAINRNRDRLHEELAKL
row,Structure (SMILES),Potency
1,CC(=O)Nc1ccc(NC(=O)CSc2nnc(-c3cccnc3)o2)cc1,"inconclusive [falling, single point]"
2,COc1cccc(Nc2nc(CC(C)=O)ns2)c1,inactive
3,O=c1c2ccccc2cnn1-c1nc2ccccc2[nH]1,"inconclusive [falling, partial curve]"
4,CS(=O)(=O)N1CCc2cc(C(=O)Nc3ccc(O)cc3)ccc21,"inconclusive [falling, full curve]"
5,COc1ccc(NC(=O)C(=O)NCCCn2ccnc2)cc1,inactive
6,Cc1ccccc1CCNC(=O)CCn1nc(C)c2c(C)n(-c3ccccc3)nc2c1=O,"inconclusive [falling, single point]"
7,Cc1ccc2nc(SCC(=O)NCc3ccco3)nc(=O)n2c1,"inconclusive [falling, single point]"
8,O=C(Nc1ccncc1)c1ccc([N+](=O)[O-])cc1Cl,inactive
9,COc1ccc(-c2nn(C)c3sc(C(=O)NCc4ccco4)cc23)cc1OC,inactive
10,CCCCn1c(N)c(N(CCOC)C(=O)c2cc(-c3ccco3)nc3ccccc23)c(=O)[nH]c1=O,"inconclusive [falling, partial curve]"
11,O=C(O)CSCC(=O)N1CCN(c2ccnc3cc(Cl)ccc23)CC1,inactive
12,COc1ccc(CNC(=O)Cn2cccc2C(=O)c2ccccc2)cc1,inactive
13,O=C(Nc1nnc(SCCC2OCCO2)s1)C1CC(=O)N(c2ccc(F)cc2)C1 (configuration not stated),"inconclusive [falling, single point]"
14,CC1Cc2cc(/C(O)=C3/C(=O)C(=O)N(CCCn4ccnc4)C3c3cccc([N+](=O)[O-])c3)ccc2O1 (configuration not stated),active: 10.7 µM
15,Cc1ccc(C[C@H](C(=O)O)N2C(=O)c3ccc(C(=O)O)cc3C2=O)cc1,"inconclusive [falling, single point]"
16,COC(=O)c1ccc(N2C(=O)CC(Sc3n[nH]c(C)n3)C2=O)cc1 (configuration not stated),inactive
17,O=C(N/N=C/c1ccc(O)cc1)c1cc(C23CC4CC(CC(C4)C2)C3)[nH]n1,inactive
18,COc1ccc(CNC(=O)c2cc(S(=O)(=O)N3CCCCC3)ccc2Cl)cc1OC,inactive
19,CCn1c(-c2ccccc2)c(C(=O)CC#N)c2ccccc21,inactive
20,N=c1ccn(Cc2cccc(Cl)c2)cc1,active: 7.57 µM
21,COc1cccc(C(=O)Nc2cccc(C(=O)NC3=NN(c4c(Cl)cc(Cl)cc4Cl)C(=O)C3)c2)c1,"inconclusive [activator, single point]"
22,Cc1ccc(NC(=O)CN2C(=O)N/C(=C/c3ccco3)C2=O)cc1,"inconclusive [falling, full curve]"
